Experimental findings from PubChem BioAssay AID1508623 (National Center for Advancing Translational Sciences (NCATS), 2021) are described below.

Screen size: about 48,000 compounds; about 450 (0.94%) were called active. About 19% were inconclusive and are not listed. Calls come from the whole dose curve; as a rule, active = well fitted inhibition curve with a large enough effect; inconclusive = small, poorly fitted or top-dose-only effect; inactive = no such curve, though single readings can be large or run the other way. This is one part of the list.
Potency is the fitted concentration of half-maximal effect.

A short description of the assay: Primary qHTS for Identification of Small Molecule Inhibitors of Huntingtin Promoter Activity. Note: nearly all actives have a fitted effect of over 50% in size. The settings on record: HEK293 HTT promoter firefly luciferase reporter (activity 0% = vehicle and -100% = no light), 24 h; series mostly up to 57.5 µM; activity change, negative = inhibition: at the top concentration. An outline of the steps:
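HEK293 Fluc reporter, 2,500 cells/well, 24 h pre-culture; cpds up to 57.5 uM final, 24 h 37 degrees C; Dual-Glo, 10 min RT; normalized vehicle = 0%, zero RLU = -100%.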
(Quantitative high-throughput screening tests each substance at several concentrations.)
On to `CCc1ccc(-n2nc3cc(C)c(NC(=O)c4cc(Cl)ccc4OC)cc3n2)cc1`, for which the “activity change, negative = inhibition” value is inactive: -9.13%.

On to `COc1ccc(NS(=O)(=O)c2cc3[nH]c(=O)c(=O)[nH]c3cc2C)cc1OC`, for which the “activity change, negative = inhibition” value is inactive: -20.2%.

In the case of `Cc1ccc2c(=O)cc(C(=O)Nc3sc4c(c3C(=O)NCc3ccco3)CCC4)oc2c1C`, the “activity change, negative = inhibition” value is inactive: 13.2%.

Consider `COc1ccc(Nc2cc(C(=O)NCCc3ccccc3)c3ccccc3n2)cc1OC`, for which the “activity change, negative = inhibition” value is inactive: -8.06%.

For `CCCN(C(=O)Cn1ncc2c(=O)oc3ccccc3c21)c1cccc(C)c1`, the “activity change, negative = inhibition” value was inactive: -2.94%.

`Cc1ccc(CNC(=O)Cn2ncc3c(C)n(Cc4ccc(Cl)cc4)c(C)c3c2=O)cc1`: the “activity change, negative = inhibition” value is inactive: -3.04%.

Take `CCC(C)NC(=O)Cn1c(=O)n(Cc2ccc(C(=O)NCCCOC)cc2)c(=O)c2ccccc21` (stereo not drawn): the “activity change, negative = inhibition” value was inactive: -5.69%.

As for `Cc1ccc(NC(=O)c2c(N3CCCC3=O)c3cc(C)ccc3n2C)c(C)c1`, the “activity change, negative = inhibition” value is inactive: -16.3%.

Regarding `Cc1ccc(Cl)c2sc(N3CCN(C(=O)C4CC4)CC3)nc12`, the “activity change, negative = inhibition” value is inactive: 0%.

Consider `CC(C)c1ccc(NC(=O)CSc2ncc3c(n2)-c2ccccc2N(C)S3(=O)=O)cc1`, for which the “activity change, negative = inhibition” value was inactive: -30.5%.

Regarding `CSc1ccc(CNCc2c(C(=O)O)c(C)n(Cc3ccc(F)cc3Cl)c2C)cc1`, the “activity change, negative = inhibition” value is inactive: -18.1%.

Regarding `Cc1ccccc1CNC(=O)c1c(C)oc2c1C1=NCCN1C=N2`, the “activity change, negative = inhibition” value is inactive: 9.64%.

Turning to `Cc1ccccc1Cn1cc(S(=O)(=O)c2ccc(Cl)cc2)c(=O)c2cc3c(cc21)OCO3`, the “activity change, negative = inhibition” value was inactive: -8.05%.

Turning to `Cc1c(NC(=O)c2nc3ccccc3n(C)c2=O)cccc1[N+](=O)[O-]`, the “activity change, negative = inhibition” value was inactive: 11.1%.

`O=C1[C@@H]2CSC(c3ccc(F)cc3)N2C(=O)N1c1ccc(Cl)cc1` (stereo partly drawn): the “activity change, negative = inhibition” value is inactive: -34.6%.

For the molecule `CCc1ccc(-n2c(=O)c3c4c(sc3n(Cc3ccc(F)cc3)c2=O)CCCC4)cc1`, the “activity change, negative = inhibition” value was inactive: 13.1%.

As to `COc1ccc(CNC(=O)c2cccc(N3CCCS3(=O)=O)c2)cc1`, the “activity change, negative = inhibition” value was inactive: -31.6%.

On to `O=C(Cn1c(=O)n2nc(-c3ccccc3)nc2c2ccccc21)Nc1ccccc1C(F)(F)F`, for which the “activity change, negative = inhibition” value is inactive: -5.28%.

With `Nc1ncc(S(=O)(=O)NCc2cccc(Cl)c2)cn1`, the “activity change, negative = inhibition” value is inactive: -1.53%.

In the case of `Cc1ccc2oc(=O)c3cnn(CC(=O)NCc4ccccc4Cl)c3c2c1`, the “activity change, negative = inhibition” value is inactive: 7.76%.

For `O=C(O)CCC(=O)OC[C@@H](NC(=O)C(Cl)Cl)[C@H](O)c1ccc([N+](=O)[O-])cc1`, the “activity change, negative = inhibition” value was inactive: -4.89%.

For `Cc1ccc(-c2nc(CCNC(=O)C(=O)Nc3ccc(C)c(C)c3)cs2)cc1`, the “activity change, negative = inhibition” value was inactive: -4.09%.

In the case of `COc1ccc2cc(CCC(C)=O)ccc2c1`, the “activity change, negative = inhibition” value was inactive: 33.2%.

Consider `COc1ccc(NC(=O)c2ccc3nc(CCc4ccccc4)oc3c2)cc1`, for which the “activity change, negative = inhibition” value was inactive: 40.5%.

Regarding `CS(=O)(=O)c1ccc2nc(NC(=O)CS(=O)(=O)c3ccc(Cl)cc3)sc2c1`, the “activity change, negative = inhibition” value was inactive: -22.3%.

As for `CCOC(=O)CNC(=O)Nc1cc(C(=O)NCc2cccc(F)c2)ccc1N1CCCC1`, the “activity change, negative = inhibition” value was inactive: -6.59%.

With `COc1ccccc1NC(=O)C1CCCN(c2nnc(C)c3c(C)n(-c4ccccc4)nc23)C1` (stereo not drawn), the “activity change, negative = inhibition” value is inactive: -10.6%.

As for `CCCCCC(C)N` (stereo not drawn), the “activity change, negative = inhibition” value is inactive: 8.59%.

On to `O=C(NCC(c1cccnc1)N1CCc2ccccc21)c1ccccc1Br` (stereo not drawn), for which the “activity change, negative = inhibition” value was inactive: -30%.

As for `CCCN(CCC)C(=O)Cn1c(=O)n(-c2cccc(C(F)(F)F)c2)c(=O)c2c(C)c(C)sc21`, the “activity change, negative = inhibition” value is inactive: -7.69%.

With `O=C(Cn1c(=O)n(Cc2ccco2)c(=O)c2cccnc21)Nc1ccccc1F`, the “activity change, negative = inhibition” value was inactive: -10.3%.

For `O=C(Nc1ccc2nc(SCC(=O)N3CCCC3)sc2c1)c1ccccc1`, the “activity change, negative = inhibition” value is inactive: 3.26%.

With `CCOc1cc(C(=O)Nc2ccc(-c3nc4cc(C)ccc4o3)cc2)cc(OCC)c1OCC`, the “activity change, negative = inhibition” value is inactive: -6.75%.

For the molecule `Cc1ccc(OCC(=O)Nc2c(C(=O)c3ccccc3)oc3ccccc23)cc1C`, the “activity change, negative = inhibition” value is inactive: 10.2%.

In the case of `COc1ccc(CNC(=O)Cn2c(SCC(=O)N(C)c3ccccc3)nc3ccccc32)cc1`, the “activity change, negative = inhibition” value was inactive: -3.2%.

For the molecule `CCOC(=O)c1noc2nc(C)n(CC(=O)Nc3cc(Cl)ccc3OC)c(=O)c12`, the “activity change, negative = inhibition” value was inactive: -13.8%.

As for `COc1cc(C(=O)Nc2ccc3nn(-c4ccc(F)cc4)nc3c2)cc(OC)c1OC`, the “activity change, negative = inhibition” value was inactive: 0.682%.

Take `CCCCn1c(=O)n(-c2ccc(Br)cc2F)c(=O)c2c3c(sc21)CN(C(C)=O)CC3`: the “activity change, negative = inhibition” value was inactive: -25.9%.

`Cc1ccc(CNC(=O)C2CCN(S(=O)(=O)N3CCC(C)CC3)CC2)cc1`: the “activity change, negative = inhibition” value was inactive: -4.01%.

On to `Oc1c(C(c2ccccc2)N2CCN(Cc3ccccc3)CC2)sc2nc(-c3ccco3)nn12` (stereo not drawn), for which the “activity change, negative = inhibition” value is inactive: -32.9%.

For the molecule `COc1cc(Cl)c(C)cc1NC(=O)CCc1nc2cccnc2n1-c1ccccc1`, the “activity change, negative = inhibition” value was inactive: -15.1%.

As to `CC1=C(C(=O)Nc2ccccc2)C(c2ccccc2)n2nc(-c3ccco3)nc2N1` (stereo not drawn), the “activity change, negative = inhibition” value is inactive: -11.4%.

As for `CC(=O)Nc1nnc(SCc2cc(=O)c3cc(C)ccc3[nH]2)s1`, the “activity change, negative = inhibition” value was inactive: -18.6%.

Take `NC(=O)NC1N=C([O][Al])NC1=O` (stereo not drawn): the “activity change, negative = inhibition” value was inactive: 3.6%.

With `COc1ccc(NC(=O)Cn2c(SCc3cccc(Cl)c3)nc3ccncc32)c(OC)c1OC`, the “activity change, negative = inhibition” value was inactive: 12.7%.

Regarding `Cc1ccc(NCc2cccn2-c2nnc(N3CCCCCC3)s2)cc1`, the Potency is active: 7.94 µM.

On to `CCOc1ccccc1NC(=O)C(C)Sc1cc(-c2ccccc2)nc(C)n1` (stereo not drawn), for which the “activity change, negative = inhibition” value was inactive: -15.2%.

`CCCCNC(=O)C1CCN(S(=O)(=O)c2cc(Br)cc3c2N(C(=O)CC)CC3)CC1`: the “activity change, negative = inhibition” value is inactive: -6.96%.

On to `Cn1c(=O)cc(SCC(=O)NCc2ccc(F)cc2)c2ccc(Cl)cc21`, for which the “activity change, negative = inhibition” value is inactive: -5.06%.

Consider `CCn1cc(C(=O)O)c(=O)c2ccc(C)nc21`, for which the activity change, negative = inhibition result was “inactive”.

As to `CCN(CC)CCNC(=O)c1cc(S(C)(=O)=O)ccc1OC`, the “activity change, negative = inhibition” value was inactive: 7.06%.

Consider `CC(=O)c1ccc(NC(=O)C2CCC(CNS(=O)(=O)c3ccc(Br)s3)CC2)cc1` (stereo not drawn), for which the “activity change, negative = inhibition” value is inactive: -2.42%.

As for `O=C(NC(=O)c1cccc(F)c1)Nc1ccc(-c2cc(C(F)(F)F)nn2-c2ccccc2)cc1`, the “activity change, negative = inhibition” value is inactive: -20.8%.

With `Cc1nc(-c2ccc(C)c(N3CCN(C(=O)Nc4ccccc4C(F)(F)F)CC3)c2)no1`, the “activity change, negative = inhibition” value was inactive: -20.3%.

For `Cc1ccc(C(=O)Nc2nnc(S(=O)(=O)N3CCOCC3)s2)cc1`, the “activity change, negative = inhibition” value is inactive: 10.5%.

As for `COC(=O)c1ccc(NC(=O)C2(S(=O)(=O)c3ccc(C)cc3)CC2)cc1`, the “activity change, negative = inhibition” value was inactive: 12.4%.

With `COC(=O)c1sc(-c2ccccc2)cc1NC(=O)c1cccc(F)c1`, the “activity change, negative = inhibition” value was inactive: 13.1%.

Take `Cc1ccc(CN2CCCn3nc(C(=O)NCCC(C)C)cc3C2=O)cc1`: the “activity change, negative = inhibition” value was inactive: -22.4%.

Turning to `Cc1ccc(S(=O)(=O)N2CCC(Oc3ccc(-n4cnnn4)cc3)CC2)cc1`, the “activity change, negative = inhibition” value was inactive: -2.78%.

Regarding `COc1ccccc1-n1cc(-c2ccc(C)cc2)nc1S(=O)(=O)CC(=O)Nc1ccccc1C(F)(F)F`, the “activity change, negative = inhibition” value is inactive: -7.71%.

`COc1ccc(CNCCSc2nnnn2-c2ccccc2)cc1`: the “activity change, negative = inhibition” value is inactive: -25.4%.

Regarding `CCc1ccc(-n2nnc(-c3nc(-c4ccccc4)no3)c2C)cc1`, the “activity change, negative = inhibition” value was inactive: 54.1%.

In the case of `COc1ccc(CCNC(=O)c2ccc3c(c2)N(Cc2cccc(C)c2)C(=O)c2ccccc2S3(=O)=O)cc1OC`, the “activity change, negative = inhibition” value was inactive: 7.97%.
